Hit rate of the full screen: of about 45,000 compounds, about 65 (0.1%) were called active. Calls follow the shape of the dose curve; as a rule, active = well fitted activation curve with a large enough effect; inconclusive = small, poorly fitted or top-dose-only effect; inactive = no such curve, though single readings can be large or run the other way. The list shows a part of the results.
target: Galactocerebrosidase (Homo sapiens) (UniProt P54803); assay: A Novel Cell-Based Assay to Identify Small Molecules for B -Galactocerebrosidase; conditions: 145M-Twi-hGALC-G270D cells, HMU-beta-Gal fluorescence, 48 h; series mostly up to 57.5 µM; activation: at the top concentration; also: 0% is about no effect; nearly all actives have a fitted effect of over 65% in size
Summary of the method: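 qHTS, 1536-well; 145M-Twi-hGALC-G270D cells (WT line also made) in DMEM/F12 + 10% FBS; compound incubation on live cells; HMU-β-gal 0.1 mM final, pH 5.2, NaTC; carbonate stop; fluorescence increase = enhanced residual activity.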

UniProt P54803, sequence (P54803 whole entry, looked up): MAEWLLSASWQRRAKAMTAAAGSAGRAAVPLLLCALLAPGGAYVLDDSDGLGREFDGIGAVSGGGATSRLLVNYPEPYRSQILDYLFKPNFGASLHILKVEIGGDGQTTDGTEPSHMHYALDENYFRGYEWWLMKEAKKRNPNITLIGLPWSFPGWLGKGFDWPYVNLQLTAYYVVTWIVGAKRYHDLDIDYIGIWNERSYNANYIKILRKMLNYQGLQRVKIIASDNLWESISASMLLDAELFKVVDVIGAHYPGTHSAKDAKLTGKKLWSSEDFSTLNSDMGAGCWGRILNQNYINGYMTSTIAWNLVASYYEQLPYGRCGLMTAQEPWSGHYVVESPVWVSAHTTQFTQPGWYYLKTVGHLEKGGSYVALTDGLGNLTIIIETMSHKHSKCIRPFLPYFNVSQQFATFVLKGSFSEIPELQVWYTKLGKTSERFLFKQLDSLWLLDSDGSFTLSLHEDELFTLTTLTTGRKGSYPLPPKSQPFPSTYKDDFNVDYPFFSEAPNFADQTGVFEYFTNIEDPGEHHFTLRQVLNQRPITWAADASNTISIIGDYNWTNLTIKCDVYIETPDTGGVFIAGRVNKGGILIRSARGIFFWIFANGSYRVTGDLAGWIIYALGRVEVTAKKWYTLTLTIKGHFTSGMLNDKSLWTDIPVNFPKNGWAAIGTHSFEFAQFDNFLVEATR

activation, inactive:
CC1CCCCN1CCCNC(=O)Cn1ncc2c([nH]c3ccccc32)c1=O (stereo unspecified) -13.8%, Cc1cccc(CNS(=O)(=O)c2ccc3[nH]c(=O)ccc3c2)c1 -8.39%, NC(=O)c1cc(S(=O)(=O)N2CCN(c3ccc(F)cc3)CC2)cs1 -3.05%, CCC(CC)c1nn2c(=O)cc(COc3ccc(NC(=O)c4ccccc4Cl)cc3)nc2s1 8.94%, Cc1ccccc1CNC(=O)C1CCN(c2nn3cc(-c4ccc(F)cc4)nc3s2)CC1 -10.5%, COc1ccc(C)cc1NC(=O)c1cc(S(=O)(=O)NC2CCCCCC2)ccc1F -1.59%, COc1ccc(Cn2c(=O)[nH]c3cc(C(=O)N4CCN(c5cc(C)ccc5C)CC4)ccc3c2=O)cc1 -14.7%, CC(=O)c1cc(-c2ccccc2)n(CC(=O)NC2CCCCC2)c1C -8.98%, CC(C)Cn1c(=O)c2ccccc2n2c(CCC(=O)Nc3cccc(Cl)c3)nnc12 -11.7%, CCOC(=O)c1cnc2cc(-c3ccc(Cl)cc3)nn2c1-c1ccccc1 -9.86%, COc1ccc(-c2cnnn2-c2ccc(NC(=O)c3c(F)cccc3F)cc2)cc1 0.0993%, COc1ccc(-c2cnnn2-c2ccc(NC(=O)c3ccc(S(=O)(=O)N(C)C)cc3)cc2)cc1 -13.3%, O=C(Cc1ccc(F)cc1)NC1CC(=O)N(c2ccccc2)C1 (stereo unspecified) -7.71%, CCOc1ccc(Cn2nnc3c(=O)[nH]c(C4CCN(C(=O)c5ccccc5)CC4)nc32)cc1 -10.9%, CCCOc1ccc(-c2nn(-c3ccccc3)cc2C2NC(=O)NC(C)=C2C(=O)OC(C)C)cc1 (stereo unspecified) -21.9%, O=C1Nc2c(c(=O)[nH]c(=O)n2-c2ccccc2)C1(NS(=O)(=O)c1ccc(Cl)cc1)C(F)(F)F (stereo unspecified) -10.2%, OC(CCN1CCCC1)(c1ccccc1)C1CCCCC1 (stereo unspecified) -13.2%, CCOc1ccccc1/C=C/c1onc(C)c1S(=O)(=O)N1CCC(C(=O)N(CC)CC)CC1 -4.85%, Cc1ccc(NC(=O)Cn2c(=O)n(CCCCCC(=O)NCc3ccc(F)cc3)c(=O)c3sccc32)cc1C -13.7%, CCc1nnc(SCC(=O)Nc2ccc(F)cc2F)c2cc3sc(C)cc3n12 -15.4%, COc1ccc(F)cc1S(=O)(=O)NCCc1sc2nc(-c3ccc(F)cc3)nn2c1C -12.3%, Cc1cc(C)cc(Oc2nc3c(c(=O)n(C)c(=O)n3C)n2Cc2ccc(F)cc2)c1 -17%, CCOC(=O)c1ccccc1NC(=O)N(C)CCc1c(C)nn(CC)c1C -6.51%, COc1ccc(N2CCN(c3oc(/C=C/c4cc(OC)c(OC)c(OC)c4)nc3C#N)CC2)cc1 -9.27%, COc1cc(C(=O)Nc2ccc3oc(-c4ccc(C)c(Br)c4)nc3c2)cc(OC)c1OC -20.5%, CCc1cccc(C)c1NC(=O)CSc1nnc(CC)n2c1cc1occc12 -16.3%
